Source: PMC6212790
Some of the results follow. At the low end of the ranking the order means little.
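Also: rank score from −0.5 (least bound) to 0.5 (best bound).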

The sequences below were run against T1, GST-Rok-C97-191 (UniProt O34857) (assay: protein binding microarray). Settings: Rok is a gene silencer of Bacillus subtilis; high values mean tight binding; most listed sequences are background and not binding sites; double strand, one strand shown.
T1 sequence: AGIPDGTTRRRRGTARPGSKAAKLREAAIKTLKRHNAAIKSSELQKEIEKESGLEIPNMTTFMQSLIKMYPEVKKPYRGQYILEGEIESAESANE
Work on ATAGTGAT yielded a binding signal of 0.0864 E-score. Work on AATTTCGA yielded a binding signal of 0.271 E-score. Work on ACCGACTG yielded a binding signal of -0.0161 E-score. TACTTCGA was tested, and the binding signal was 0.232 E-score. Work on AGATCCGA yielded a binding signal of -0.0616 E-score. Sequence CTATAAGA has a binding signal of 0.156 E-score. Work on ATGTCGAG yielded a binding signal of -0.132 E-score. AGTCAAAC was tested, and the binding signal was 0.117 E-score. Sequence TCTGCCAA has a binding signal of -0.0966 E-score. ATTGTAAG showed a binding signal of 0.016 E-score. For CAATCACG, the binding signal was -0.245 E-score. For AAATCTGC, the binding signal was -0.0413 E-score. Work on CAGTAAGC yielded a binding signal of -0.0499 E-score. In the case of CCAATTCG, the binding signal is reported as 0.00764 E-score. Work on AGTGAAGA yielded a binding signal of 0.164 E-score. Work on GGGAGTGA yielded a binding signal of -0.147 E-score. TTATCCAA gave a binding signal of 0.108 E-score. CCCGGTCC showed a binding signal of -0.102 E-score. Sequence CGGTAATC has a binding signal of -0.184 E-score. ACGATGTA gave a binding signal of 0.00217 E-score. ACTAAGAA showed a binding signal of 0.000298 E-score. GTAACTTA gave a binding signal of 0.228 E-score. GACGGTGC showed a binding signal of -0.143 E-score. In the case of CCTCGGAG, the binding signal is reported as -0.234 E-score. Work on AGGCGAGA yielded a binding signal of -0.14 E-score. Sequence ATCTATAG has a binding signal of 0.295 E-score. Sequence CACTGATC has a binding signal of -0.131 E-score. AATCATAT gave a binding signal of 0.166 E-score. AGTGCGAT showed a binding signal of -0.0697 E-score. GATGAACA showed a binding signal of 0.138 E-score. ATTTGCCA showed a binding signal of 0.177 E-score. ATCTAGAT showed a binding signal of 0.255 E-score. Work on ATTCCCGC yielded a binding signal of -0.0834 E-score. AAGGCTTA showed a binding signal of -0.207 E-score. Work on CGCAGTAG yielded a binding signal of 0.0362 E-score. In the case of CGCGCCCG, the binding signal is reported as -0.183 E-score. Sequence ATCCTTTA has a binding signal of -0.0194 E-score. Work on GCGGCAGA yielded a binding signal of -0.0665 E-score. ACGTTTGG showed a binding signal of 0.0256 E-score. ACCCCTAC was tested, and the binding signal was -0.2 E-score. CCCCGTCC was tested, and the binding signal was -0.175 E-score. With CACTTGGA the binding signal was -0.124 E-score. TAGCAGAA was tested, and the binding signal was 0.073 E-score. For ACTCCTCG, the binding signal was -0.154 E-score. AATACTAA gave a binding signal of 0.287 E-score. ATCAGTCC showed a binding signal of -0.0613 E-score. AGTGGGTA gave a binding signal of 0.2 E-score. ACAGCGCA gave a binding signal of 0.0237 E-score. With CACGAGCA the binding signal was -0.0421 E-score. In the case of GATCTTAC, the binding signal is reported as 0.0962 E-score. Sequence CCCAGGCC has a binding signal of -0.345 E-score. ACAAAGTA showed a binding signal of 0.275 E-score. CCCTCCCC showed a binding signal of -0.482 E-score. Sequence GACTCTCA has a binding signal of -0.0851 E-score. TCTATAAA was tested, and the binding signal was 0.161 E-score. GCAATGCA showed a binding signal of -0.0527 E-score. With AGACCTAG the binding signal was 0.0543 E-score. In the case of ACGTTAAA, the binding signal is reported as 0.0842 E-score. ATGGAGCG was tested, and the binding signal was -0.0617 E-score. Sequence ATAAATGC has a binding signal of 0.265 E-score. For GAATAAGA, the binding signal was 0.0835 E-score. For ACATATAA, the binding signal was 0.26 E-score. CATTTACC gave a binding signal of 0.0643 E-score. In the case of CCCTTTCA, the binding signal is reported as -0.125 E-score. Sequence AGAGGTAA has a binding signal of 0.149 E-score. In the case of GTTGGCAA, the binding signal is reported as -0.0668 E-score. In the case of CCACCGTC, the binding signal is reported as -0.219 E-score. CATCGTCC showed a binding signal of -0.217 E-score. AGGGAATG showed a binding signal of -0.182 E-score. With TGAGGAAA the binding signal was -0.0897 E-score. For GATTTAGC, the binding signal was 0.176 E-score. Work on CCGGTCAG yielded a binding signal of 0.00515 E-score. AATGTGTC gave a binding signal of 0.0699 E-score. CATTTATA gave a binding signal of 0.354 E-score. For AATTAAGC, the binding signal was 0.109 E-score. Work on ATATAGTC yielded a binding signal of 0.225 E-score. CCAATCGA gave a binding signal of -0.0716 E-score. For ACACTCCG, the binding signal was -0.049 E-score. With GATCCCAA the binding signal was -0.0704 E-score. For ACATCGGC, the binding signal was -0.0941 E-score. Sequence ACACATGC has a binding signal of 0.0174 E-score. For CATGGCCG, the binding signal was -0.2 E-score. ACCGAGGG was tested, and the binding signal was -0.246 E-score. AGCGACCC gave a binding signal of -0.067 E-score. With CACTCCGA the binding signal was -0.102 E-score. With GGGCAGAC the binding signal was -0.362 E-score.
